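Interpolation was linear, between the two tested concentrations surrounding the appropriate level; five concentrations were tested over 48 hours in 96-well plates. Abbreviation: GI50, concentration required for 50% inhibition of growth. TGI: total growth inhibition.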
system: NCI-H322M lung; experiment: inhibition of tumour cell growth, NCI panel, 48 h

Going from `Cc1ccc(NC(=O)N/N=C/c2c[nH]c3ccccc23)c(C)c1` to `Cc1ccccc1[C@H]1C(C(=O)c2ccc(Cl)cc2)C2(N[C@@H]1c1ccccc1)C(=O)Nc1ccc(Br)cc12` (stereo partly specified), the GI50 rises from 0.771 µM to 4.59 µM (6-fold).

Molecule `COc1cc(/C=C/C(=O)c2nnn(-c3ccc(Cl)cc3)c2C)cc(OC)c1OC` has a GI50 greater than 100 µM.

Compared with `Cc1ccc(NC(=O)N/N=C/c2c[nH]c3ccccc23)c(C)c1`, `Cc1ccccc1[C@H]1C(C(=O)c2ccc(Cl)cc2)C2(N[C@@H]1c1ccccc1)C(=O)Nc1ccc(Br)cc12` (stereo partly specified) is lower in TGI: greater than 100 µM for the first, 9.66 µM for the second.

`COc1cc(/C=C/C(=O)c2nnn(-c3ccc(Cl)cc3)c2C)cc(OC)c1OC` was tested, and the TGI was greater than 100 µM.

From PubChem BioAssay (NCI)
